{"source": "paper PMC10668032", "note": "Some of the results follow. At the low end of the ranking the order means little."}
{"target": "SIX1 homeodomain (reference allele) (UniProt Q15475)", "assay": "universal protein binding microarray", "conditions": "Universal all-10-mer PBM (8x60K, AMADID 030236), 300 nM GST-tagged protein, Alexa Fluor 488 anti-GST; buffer, salt, pH and temperature not stated; high values mean tight binding; most listed sequences are background and not binding sites; double strand, one strand shown", "units": {"binding signal": "E-score"}}
{"sequence": "CTAGCTGA", "binding signal": 0.0507}
{"sequence": "AGCCAAAT", "binding signal": -0.134}
{"sequence": "ACTATTCA", "binding signal": -0.0552}
{"sequence": "AAATACGT", "binding signal": -0.0622}
{"sequence": "GGAAGTAC", "binding signal": -0.212}
{"sequence": "TAATATAA", "binding signal": 0.257}
{"sequence": "AAATAGGG", "binding signal": 0.00936}
{"sequence": "ATCTCGCC", "binding signal": 0.0882}
{"sequence": "AGGTCTTA", "binding signal": -0.0877}
{"sequence": "TATCATGA", "binding signal": 0.382}
{"sequence": "GCGGCGTA", "binding signal": -0.0537}
{"sequence": "CTCGGTGA", "binding signal": 0.0111}
{"sequence": "ACGAGAGA", "binding signal": -0.00677}
{"sequence": "CTATCTAA", "binding signal": 0.0125}
{"sequence": "AGGGCTAG", "binding signal": -0.099}
{"sequence": "ACCGCGAT", "binding signal": 0.323}
{"sequence": "CACTGTGG", "binding signal": 0.0625}
{"sequence": "AGGCGCAG", "binding signal": -0.14}
{"sequence": "AACGTCAG", "binding signal": -0.307}
{"sequence": "CTAACACA", "binding signal": -0.0192}
{"sequence": "CGAAAACG", "binding signal": -0.154}
{"sequence": "CCGAAGCA", "binding signal": -0.0149}
{"sequence": "CGTTGGAG", "binding signal": -0.127}
{"sequence": "ATCTAGCA", "binding signal": 0.0761}
{"sequence": "CAGGTACG", "binding signal": 0.08}
{"sequence": "CGGTTTGA", "binding signal": 0.0547}
{"sequence": "CCATTCAC", "binding signal": -0.092}
{"sequence": "ACATATCG", "binding signal": 0.389}
{"sequence": "ATCTTTGG", "binding signal": 0.00602}
{"sequence": "CCTAAGAG", "binding signal": -0.0494}
{"sequence": "GAGCCCTC", "binding signal": -0.0567}
{"sequence": "AATCGGCG", "binding signal": -0.127}
{"sequence": "GCAGTTTA", "binding signal": -0.237}
{"sequence": "ATATAACA", "binding signal": 0.178}
{"sequence": "GAACTGAC", "binding signal": -0.149}
{"sequence": "AGCCAAAC", "binding signal": -0.188}
{"sequence": "CAATACTG", "binding signal": 0.0673}
{"sequence": "ACAGCGTC", "binding signal": -0.0483}
{"sequence": "CACAAACG", "binding signal": -0.0464}
{"sequence": "CTGAGACA", "binding signal": 0.1}
{"sequence": "ATAGGTAC", "binding signal": 0.16}
{"sequence": "CCGCAACG", "binding signal": -0.00732}
{"sequence": "CAACCCCC", "binding signal": -0.0371}
{"sequence": "AGGGGGGG", "binding signal": -0.124}
{"sequence": "AGTCCCAC", "binding signal": -0.05}
{"sequence": "AACAGTGC", "binding signal": -0.0978}
{"sequence": "ATCCCGCC", "binding signal": 0.27}
{"sequence": "AAGTAATG", "binding signal": -0.179}
{"sequence": "ACCGCGGG", "binding signal": 0.145}
{"sequence": "CATGACAG", "binding signal": -0.172}
{"sequence": "CAGGACTA", "binding signal": -0.121}
{"sequence": "CCATGACG", "binding signal": -0.203}
{"sequence": "GTTAGGGA", "binding signal": -0.0668}
{"sequence": "ATTGCGCA", "binding signal": -0.136}
{"sequence": "AAGTAGTA", "binding signal": 0.0018}
{"sequence": "CGTCTATC", "binding signal": 0.0885}
{"sequence": "CGAGCTGA", "binding signal": 0.184}
{"sequence": "ATTTGTCG", "binding signal": -0.157}
{"sequence": "AAGGACGG", "binding signal": -0.0918}
{"sequence": "AGTGGACG", "binding signal": -0.204}
{"sequence": "CCGTATGA", "binding signal": 0.217}
{"sequence": "TCTATTCA", "binding signal": 0.048}
{"sequence": "CGAGGGAC", "binding signal": -0.224}
{"sequence": "TCCCAGCA", "binding signal": -0.141}
{"sequence": "AGCGTGGG", "binding signal": -0.0712}
{"sequence": "CCAAAACG", "binding signal": -0.184}
{"sequence": "GTACGCTA", "binding signal": -0.157}
{"sequence": "AGTCAACG", "binding signal": -0.363}
{"sequence": "ACCTTTCT", "binding signal": -0.0243}
{"sequence": "ATCCATTG", "binding signal": 0.271}
{"sequence": "CAACAAGA", "binding signal": -0.012}
{"sequence": "AACGCGAG", "binding signal": -0.0233}
{"sequence": "CACCGCCG", "binding signal": 0.0571}
{"sequence": "ATAGGTAA", "binding signal": 0.0604}
{"sequence": "CTAGGAGC", "binding signal": -0.121}
{"sequence": "AGATTCTG", "binding signal": 0.0305}
{"sequence": "ATTTTCCC", "binding signal": -0.14}
{"sequence": "AATGCACC", "binding signal": -0.124}
{"sequence": "CGAAATGC", "binding signal": -0.0707}
{"sequence": "AAGGAACT", "binding signal": -0.253}
{"sequence": "GGACTGGA", "binding signal": -0.231}
{"sequence": "AGCGAGCC", "binding signal": -0.037}
{"sequence": "CAGATATG", "binding signal": 0.315}
{"sequence": "CCCTAACC", "binding signal": -0.0707}
{"sequence": "CTGCCACC", "binding signal": -0.0351}
{"sequence": "TGCAAAAA", "binding signal": -0.119}
{"sequence": "CGGAATAG", "binding signal": 0.105}
{"sequence": "CCTGGGCG", "binding signal": -0.0676}
{"sequence": "ATTAGCTC", "binding signal": -0.114}
{"sequence": "CCACTCCA", "binding signal": -0.0598}
{"sequence": "GACGGGCA", "binding signal": 0.0652}
{"sequence": "ACGGACAG", "binding signal": -0.16}
{"sequence": "TGCAACCA", "binding signal": -0.0759}
{"sequence": "ACCGGTTG", "binding signal": 0.0808}
